{"source": "the supplement of paper PMC8728848", "binders": {"B1": {"name": "CVN-E41G (protein)", "chain": "MHHHHHHENLYFQSGNFSQACYNSAIQGSVLTSTCIRTNGGYNTSSIDLNSVIANVDGSLKWQGSNFIETCRNTQLAGSSELAAECKTRAQQFVSTKINLDDHIAAIDGTLKYE"}}, "test_in_all_cases": "glycan array binding signal (z-score within array); higher = stronger binding", "conditions_in_all_cases": "glycan notation: IUPAC condensed, linker removed; mutation: E41A", "key": {"[1]": {"target": "Gal(b1-4)GlcNAc(b1-3)Gal(b1-4)GlcNAc(b1-3)[Gal(b1-4)GlcNAc(b1-3)Gal(b1-4)GlcNAc(b1-6)]GalNAc", "how_it_was_run": "(§1)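 From the Consortium for Functional Glycomics database, 3228 arrays were curated, keeping only those whose protein sequence was available. Binding is given as a within-array Z-score averaged across arrays sharing a protein sequence and across linkers. Negative Z-scores can be read as non-binding.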"}, "[2]": {"target": "Gal(b1-4)GlcNAc(b1-3)Gal(b1-4)GlcNAc(b1-6)[Gal(b1-3)]GalNAc", "how_it_was_run": "as §1"}, "[3]": {"target": "Gal(b1-4)GlcNAc(b1-3)Gal(b1-4)[Fuc(a1-3)]GlcNAc(b1-3)Gal(b1-4)[Fuc(a1-3)]GlcNAc", "how_it_was_run": "as §1"}, "[4]": {"target": "Gal(b1-4)GlcNAc(b1-3)GalNAc", "how_it_was_run": "as §1"}, "[5]": {"target": "Gal(b1-4)GlcNAc(b1-3)[Fuc(a1-3)GlcNAc(b1-6)]Gal(b1-4)Glc", "how_it_was_run": "as §1"}, "[6]": {"target": "Gal(b1-4)GlcNAc(b1-3)[Gal(b1-4)GlcNAc(b1-6)]Gal(b1-4)GlcNAc", "how_it_was_run": "as §1"}, "[7]": {"target": "Gal(b1-4)GlcNAc(b1-3)[GlcNAc(b1-6)]Gal(b1-4)GlcNAc", "how_it_was_run": "as §1"}, "[8]": {"target": "Gal(b1-4)GlcNAc(b1-6)Gal(b1-4)GlcNAc", "how_it_was_run": "as §1"}, "[9]": {"target": "Gal(b1-4)GlcNAc(b1-6)GalNAc", "how_it_was_run": "as §1"}, "[10]": {"target": "Gal(b1-4)GlcNAc(b1-6)[Gal(b1-3)]GalNAc", "how_it_was_run": "as §1"}, "[11]": {"target": "Gal(b1-4)GlcNAc(b1-6)[Gal(b1-4)GlcNAc(b1-3)]GalNAc", "how_it_was_run": "as §1"}, "Gal(b1-4)GlcNAc6P": {"target": "Gal(b1-4)GlcNAc6P", "how_it_was_run": "as §1"}, "Gal(b1-6)Gal": {"target": "Gal(b1-6)Gal", "how_it_was_run": "as §1"}, "Gal3S(b1-3)GalNAc": {"target": "Gal3S(b1-3)GalNAc", "how_it_was_run": "as §1"}, "Gal3S(b1-3)GlcNAc": {"target": "Gal3S(b1-3)GlcNAc", "how_it_was_run": "as §1"}, "[12]": {"target": "Gal3S(b1-3)[Fuc(a1-4)]GlcNAc", "how_it_was_run": "as §1"}, "Gal3S(b1-4)Glc": {"target": "Gal3S(b1-4)Glc", "how_it_was_run": "as §1"}, "Gal3S(b1-4)Glc6S": {"target": "Gal3S(b1-4)Glc6S", "how_it_was_run": "as §1"}, "Gal3S(b1-4)GlcNAc": {"target": "Gal3S(b1-4)GlcNAc", "how_it_was_run": "as §1"}, "[13]": {"target": "Gal3S(b1-4)[Fuc(a1-3)]Glc6S", "how_it_was_run": "as §1"}, "[14]": {"target": "Gal3S(b1-4)[Fuc(a1-3)]GlcNAc", "how_it_was_run": "as §1"}, "[15]": {"target": "Gal3S(b1-4)[Fuc(a1-3)]GlcNAc6S", "how_it_was_run": "as §1"}, "Gal3S4S(b1-4)GlcNAc": {"target": "Gal3S4S(b1-4)GlcNAc", "how_it_was_run": "as §1"}, "Gal3S6S(b1-4)GlcNAc": {"target": "Gal3S6S(b1-4)GlcNAc", "how_it_was_run": "as §1"}, "Gal3S6S(b1-4)GlcNAc6S": {"target": "Gal3S6S(b1-4)GlcNAc6S", "how_it_was_run": "as §1"}, "Gal4S(b1-4)GlcNAc": {"target": "Gal4S(b1-4)GlcNAc", "how_it_was_run": "as §1"}, "Gal4S6S(b1-4)GlcNAc": {"target": "Gal4S6S(b1-4)GlcNAc", "how_it_was_run": "as §1"}, "Gal6P(b1-4)GlcNAc": {"target": "Gal6P(b1-4)GlcNAc", "how_it_was_run": "as §1"}, "Gal6S(b1-3)GlcNAc": {"target": "Gal6S(b1-3)GlcNAc", "how_it_was_run": "as §1"}, "Gal6S(b1-3)GlcNAc6S": {"target": "Gal6S(b1-3)GlcNAc6S", "how_it_was_run": "as §1"}, "Gal6S(b1-4)Glc": {"target": "Gal6S(b1-4)Glc", "how_it_was_run": "as §1"}, "Gal6S(b1-4)Glc6S": {"target": "Gal6S(b1-4)Glc6S", "how_it_was_run": "as §1"}, "Gal6S(b1-4)GlcNAc": {"target": "Gal6S(b1-4)GlcNAc", "how_it_was_run": "as §1"}, "Gal6S(b1-4)GlcNAc6S": {"target": "Gal6S(b1-4)GlcNAc6S", "how_it_was_run": "as §1"}, "GalNAc(a1-3)Gal": {"target": "GalNAc(a1-3)Gal", "how_it_was_run": "as §1"}, "GalNAc(a1-3)GalNAc": {"target": "GalNAc(a1-3)GalNAc", "how_it_was_run": "as §1"}, "[16]": {"target": "GalNAc(a1-3)GalNAc(b1-3)Gal(a1-4)Gal(b1-4)Glc", "how_it_was_run": "as §1"}, "[17]": {"target": "GalNAc(a1-3)GalNAc(b1-3)Gal(a1-4)Gal(b1-4)GlcNAc", "how_it_was_run": "as §1"}, "GalNAc(b1-3)Gal": {"target": "GalNAc(b1-3)Gal", "how_it_was_run": "as §1"}, "[18]": {"target": "GalNAc(b1-3)Gal(a1-4)Gal(b1-4)GlcNAc", "how_it_was_run": "as §1"}, "[19]": {"target": "GalNAc(b1-3)Gal(a1-4)Gal(b1-4)GlcNAc(b1-3)Gal(b1-4)Glc", "how_it_was_run": "as §1"}, "[20]": {"target": "GalNAc(b1-3)Gal(a1-6)Gal(b1-4)Glc", "how_it_was_run": "as §1"}, "GalNAc(b1-3)GalNAc": {"target": "GalNAc(b1-3)GalNAc", "how_it_was_run": "as §1"}, "GalNAc(b1-3)GlcNAc": {"target": "GalNAc(b1-3)GlcNAc", "how_it_was_run": "as §1"}, "GalNAc(b1-4)Gal(b1-4)Glc": {"target": "GalNAc(b1-4)Gal(b1-4)Glc", "how_it_was_run": "as §1"}}, "note": "This is one part of the list.", "data": [{"binder": "B1", "values": [{"measurement": "glycan array binding signal (z-score)", "setting": "[1]", "value": 0.156}, {"measurement": "glycan array binding signal (z-score)", "setting": "[2]", "value": -0.166}, {"measurement": "glycan array binding signal (z-score)", "setting": "[3]", "value": 0.012}, {"measurement": "glycan array binding signal (z-score)", "setting": "[4]", "value": -0.226}, {"measurement": "glycan array binding signal (z-score)", "setting": "[5]", "value": 0.2}, {"measurement": "glycan array binding signal (z-score)", "setting": "[6]", "value": -0.191}, {"measurement": "glycan array binding signal (z-score)", "setting": "[7]", "value": -0.197}, {"measurement": "glycan array binding signal (z-score)", "setting": "[8]", "value": -0.239}, {"measurement": "glycan array binding signal (z-score)", "setting": "[9]", "value": -0.193}, {"measurement": "glycan array binding signal (z-score)", "setting": "[10]", "value": -0.199}, {"measurement": "glycan array binding signal (z-score)", "setting": "[11]", "value": -0.215}, {"measurement": "glycan array binding signal (z-score)", "setting": "Gal(b1-4)GlcNAc6P", "value": -0.215}, {"measurement": "glycan array binding signal (z-score)", "setting": "Gal(b1-6)Gal", "value": -0.181}, {"measurement": "glycan array binding signal (z-score)", "setting": "Gal3S(b1-3)GalNAc", "value": -0.125}, {"measurement": "glycan array binding signal (z-score)", "setting": "Gal3S(b1-3)GlcNAc", "value": -0.23}, {"measurement": "glycan array binding signal (z-score)", "setting": "[12]", "value": -0.194}, {"measurement": "glycan array binding signal (z-score)", "setting": "Gal3S(b1-4)Glc", "value": -0.201}, {"measurement": "glycan array binding signal (z-score)", "setting": "Gal3S(b1-4)Glc6S", "value": -0.219}, {"measurement": "glycan array binding signal (z-score)", "setting": "Gal3S(b1-4)GlcNAc", "value": -0.218}, {"measurement": "glycan array binding signal (z-score)", "setting": "[13]", "value": -0.037}, {"measurement": "glycan array binding signal (z-score)", "setting": "[14]", "value": -0.199}, {"measurement": "glycan array binding signal (z-score)", "setting": "[15]", "value": -0.109}, {"measurement": "glycan array binding signal (z-score)", "setting": "Gal3S4S(b1-4)GlcNAc", "value": -0.204}, {"measurement": "glycan array binding signal (z-score)", "setting": "Gal3S6S(b1-4)GlcNAc", "value": 0.005}, {"measurement": "glycan array binding signal (z-score)", "setting": "Gal3S6S(b1-4)GlcNAc6S", "value": -0.212}, {"measurement": "glycan array binding signal (z-score)", "setting": "Gal4S(b1-4)GlcNAc", "value": -0.223}, {"measurement": "glycan array binding signal (z-score)", "setting": "Gal4S6S(b1-4)GlcNAc", "value": -0.249}, {"measurement": "glycan array binding signal (z-score)", "setting": "Gal6P(b1-4)GlcNAc", "value": -0.099}, {"measurement": "glycan array binding signal (z-score)", "setting": "Gal6S(b1-3)GlcNAc", "value": -0.221}, {"measurement": "glycan array binding signal (z-score)", "setting": "Gal6S(b1-3)GlcNAc6S", "value": -0.217}, {"measurement": "glycan array binding signal (z-score)", "setting": "Gal6S(b1-4)Glc", "value": -0.227}, {"measurement": "glycan array binding signal (z-score)", "setting": "Gal6S(b1-4)Glc6S", "value": -0.198}, {"measurement": "glycan array binding signal (z-score)", "setting": "Gal6S(b1-4)GlcNAc", "value": -0.203}, {"measurement": "glycan array binding signal (z-score)", "setting": "Gal6S(b1-4)GlcNAc6S", "value": -0.21}, {"measurement": "glycan array binding signal (z-score)", "setting": "GalNAc(a1-3)Gal", "value": -0.219}, {"measurement": "glycan array binding signal (z-score)", "setting": "GalNAc(a1-3)GalNAc", "value": -0.252}, {"measurement": "glycan array binding signal (z-score)", "setting": "[16]", "value": -0.23}, {"measurement": "glycan array binding signal (z-score)", "setting": "[17]", "value": -0.21}, {"measurement": "glycan array binding signal (z-score)", "setting": "GalNAc(b1-3)Gal", "value": -0.199}, {"measurement": "glycan array binding signal (z-score)", "setting": "[18]", "value": -0.091}, {"measurement": "glycan array binding signal (z-score)", "setting": "[19]", "value": -0.21}, {"measurement": "glycan array binding signal (z-score)", "setting": "[20]", "value": -0.225}, {"measurement": "glycan array binding signal (z-score)", "setting": "GalNAc(b1-3)GalNAc", "value": -0.228}, {"measurement": "glycan array binding signal (z-score)", "setting": "GalNAc(b1-3)GlcNAc", "value": -0.209}, {"measurement": "glycan array binding signal (z-score)", "setting": "GalNAc(b1-4)Gal(b1-4)Glc", "value": -0.154}]}]}
